{"source": "paper PMC3511402", "about": "“Structural and Biochemical Studies on ATP Binding and Hydrolysis by the Escherichia coli RNA Chaperone Hfq” (PLoS ONE, 2012)", "proteins": {"B1": {"name": "C-terminally truncated variant of E. coli Hfq (Hfq65), […] (domain or fragment)", "chain": "not shown", "notes": "Hfq (host factor I/Q), Escherichia coli, […] (C-terminally truncated); Crystallised with ATP (1:1 molar ratio per subunit); ATP seen in four of the six R-sites; also called host factor I/Q; source: E. coli strain AM111F' harbouring plasmid pUHfq65, purified (heat-fractionation, HIC, anion-exchange chromatography)"}}, "biological_target": "the molecule itself", "assay": "crystal structure; Hfq65 mixed with ATP 1:1 with respect to one subunit; crystal grown in 0.1 M Hepes pH ~7.5, 10% (w/v) PEG-8000, 8% (v/v) ethylene glycol; space group C2, six molecules in the asymmetric unit forming the hexamer"}
{"protein": "B1", "values": [{"measurement": "stoichiometry N", "result": 6}]}
